Experimental data as given in the supplement of paper PMC3334620.
Whole data set: some 33,000 sequences, median “E-score (-0.5 to 0.5)” near -0.017, cut for the highest 2% near 0.3. The list shows a part of the results.

These sequences were tested against T1, Sut1 (UniProt P53032) (assay: PBM E-score (8-mer binding enrichment) (E-score (-0.5 to 0.5)); higher = stronger / more preferred TF binding; most listed sequences are background and not binding sites). Conditions: protein concentration: 200 nM; construct: GST-full length.
T1 sequence: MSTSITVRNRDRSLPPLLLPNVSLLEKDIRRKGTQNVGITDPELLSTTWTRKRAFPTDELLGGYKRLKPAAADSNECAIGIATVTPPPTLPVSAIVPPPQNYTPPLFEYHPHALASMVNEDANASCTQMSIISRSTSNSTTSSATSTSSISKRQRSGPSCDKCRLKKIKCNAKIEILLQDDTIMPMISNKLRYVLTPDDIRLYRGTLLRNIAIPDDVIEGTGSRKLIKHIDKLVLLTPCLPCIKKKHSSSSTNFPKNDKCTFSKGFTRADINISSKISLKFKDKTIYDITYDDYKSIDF
Description: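 Universal 'all 10-mer' protein binding microarrays (Agilent AMADID 015681) probed with GST-tagged S. cerevisiae TFs (full-length or DBD) made by in vitro transcription/translation (PURExpress), about 100-200 nM. Bound TF was detected with fluorescent anti-GST. Each ungapped 8-mer (which stands for itself and its reverse complement) is scored by the PBM enrichment score (E-score), a modified Wilcoxon-Mann-Whitney statistic from -0.5 to +0.5, computed with the Universal PBM Analysis Suite. Scale: above 0.35 generally sequence-specific binding.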

Sequence	PBM E-score
ACCGCACC	-0.173
AACCATAA	0.187
AGCACCGC	-0.21
AGCTGAAG	-0.0924
CGAACCTC	-0.00524
AACGGTGC	-0.00434
ACTGGGCC	-0.0163
CAATAATA	0.277
CCCAAACC	-0.0698
CAGCCTTA	-0.0963
AAGTGGAA	-0.0445
ATATTCTC	0.151
CATATGAC	-0.11
GAGTTACA	0.148
AGTGAAAC	0.106
CCCATATA	-0.111
GGGACACA	-0.076
CATTATGC	0.113
CCCATCCG	-0.0816
CGGATCTC	0.0328
CATCACCG	-0.0295
GAGCCACC	-0.264
ATGCAAAA	0.197
TCTGAAAA	0.151
CATATAAA	0.15

Sequence	PBM E-score
CTCTCGGA	0.32
CCTCGAAC	-0.154
GCACTTCA	0.0427
AAGCGGAA	0.0759
CATCATGC	-0.046
GTAAGCCA	-0.205
AAGTCCAT	0.0246
GACGCAAC	-0.109
ATCCATCC	0.148
ACAAGGTC	-0.168
ATTTCTTG	0.271
CCCTGTAC	-0.276
CAACCCAC	-0.069
AACCCAAT	0.0381
CCTCGTGA	-0.123
GTTAAGAA	0.0156
AGCTAGTG	-0.208
ATTCACGG	0.219
AATGGACA	0.0358
GCGGAGAA	0.279
TGTTATAA	0.299
CCGCTCGA	-0.104
AACCGAAC	0.134
CGCAAGTA	0.00362
CCTGTCTA	-0.00562

Sequence	PBM E-score
CGGTGAGC	-0.124
ATAGTGTC	-0.0389
AAGTTCAC	-0.0197
CGCTTCGC	-0.0709
CAACTCCC	0.12
CCTGGCGC	-0.0758
AGTTCACG	-0.089
CCGAGAAG	0.0844
CCGACAAA	0.313
ACGTGGAC	-0.0921
AGGAGTTG	0.114
CAAAGCCC	-0.0153
ACCGGACA	0.234
CGGCTAGA	-0.0327
AACCTTCA	0.0886
AAGCATAT	0.0695
CCGCACTC	0.13
AAGTCTAC	0.004
AACAAGGT	0.0565
ATAAATTC	0.219
TACTCCCA	0.0185
CCACACCC	-0.148
CATGATCG	-0.0597
GCCCCAGA	-0.251
CGCATATC	0.215

Sequence	PBM E-score
CAGGCTAC	-0.217
CTGGTCAC	-0.013
CATAACTC	0.0776
CAGGCAAC	-0.0541
AGCCTACC	-0.187
AATATACG	0.0669
GCAATAAA	0.237
CGTGTCGA	-0.282
AACCGACA	0.0408
CAATTTGG	-0.0638
ACACGGGA	-0.0537
CGTACCGC	-0.147
CTCCCACA	-0.112
GCTTGTCA	0.0707
CGGAATCA	0.248
CACGTATG	0.0435
AAATGGAG	0.0191
GGCCTTCA	-0.037
ATCGGCAC	-0.108
CTATGGGC	-0.194
ACCACCCT	-0.17
GCCCGGGA	-0.116
CCCCGCGC	-0.0648
AACACTTC	0.0137
GCACCAGC	-0.163

Sequence	PBM E-score
GTAAACTA	0.227
GCCGCTCA	-0.177
CGGCCCTA	-0.0121
GTGTTCCA	-0.128
CCAAGTTC	-0.107
GTTAATCA	0.23
ACGGGAGG	-0.0871
CAACGAAA	0.141
TCTTACAA	0.0742
ATTAGGAC	0.0351
AGTTGCGG	0.153
ACAGTTAA	0.189
AGCCGTGA	-0.0248
ACGCCCTA	-0.154
AGAGGTGA	-0.0257
CTTAGTAC	0.00438
GCACCAAA	-0.0995
ATCCAGAC	-0.0133
GAAAACAC	0.109
ATGGAACG	-0.244
AGTCAACG	-0.187
AGTTAATC	0.16
ATCTGACG	-0.291
CGTATAAG	0.0744
CGATTAAG	0.169

Sequence	PBM E-score
CACCCTAG	-0.13
AATAGATT	0.234
ACGACAGC	-0.123
ATAATGTG	0.0616
ATCGCATG	0.0378
AAGATACT	0.0112
AATGTGGC	-0.172
GCGAGCGA	0.134
ACCCTCAG	-0.0355
AATCCATC	-0.159
CTGTAGCA	-0.0036
GCTTAGAA	-0.00507
AAGGCCGG	0.141
GGTAGGGA	-0.0326
TCGTTACA	-0.0871
GGCTCGGA	0.227
CAAGCGAA	-0.0186
ATTTGGGG	-0.112
TCGGCCCA	-0.137
CTGGTTAC	-0.257
ATCTTAAT	0.0933
CAAAGTTA	0.232
CCTTAGTC	-0.196
AGCAACTA	0.0763
GAGGCGAC	-0.0877

Sequence	PBM E-score
GCTTCTAA	-0.096
CGCAACAA	0.0103
CCCTTAAA	0.0399
CCCATATC	-0.043
ATTTCCAG	-0.0254
GCGCCTCA	-0.0448
CGAACGCA	0.163
AACCGGCA	-0.0988
CACTCAAG	-0.104
ACATTTCT	0.211
AGGGCAAC	-0.119
CCATGCAG	-0.203
ATCGCGGC	0.122
AAAACAAC	0.0331
ATTGCTTC	0.0496
AAAATAAG	0.208
CACATAGG	0.0745
CCTCCATC	-0.301
CAGGTTGA	-0.0962
AGGATCGC	-0.214
CGAGTACA	-0.106
ACGACCGT	-0.327
GCAGGCAC	-0.246
ACCAACAC	0.171
CCGTCCAA	0.121

Sequence	PBM E-score
CGGAGTGC	0.468
AGCGTTTG	-0.0797
GGGCGGGA	-0.178
AGCAGCAA	0.0164
ACAGGGGT	-0.261
TCGGGCCA	-0.0705
AACTCACA	0.11
CCAACCAC	0.0175
ACTCTTTG	0.0382
GACTCCAC	0.0104
AGCTGCAC	-0.0851
ACCCTTAA	0.0384
ACTACCCT	-0.205
CTAAGAAA	0.19
ACCATAAC	0.0292
GACGTCAC	-0.116
AAAAGGAT	0.0447
CACGTAAA	-0.0406
CCTCTGTC	-0.25
CCCGCTAC	-0.158
AGAAACAC	0.196
ACTTACAT	0.116
AGGAGTAG	-0.0194
AGATAGGA	-0.153
ACATCGAA	-0.0163

Sequence	PBM E-score
CATAAAAG	0.145
CCACCTAC	-0.0449
AACTCCAA	0.144
AGGACCAA	-0.0934
CAACAAGA	-0.0355
GAGTTCCA	0.127
CTCAGTAC	-0.029
ACTGGCTA	-0.0756
AGCGTGCC	-0.236
CGTTTCTC	0.0691
CGCCCCAA	-0.0217
GCTGTCCC	-0.24
ACCACTTC	-0.0194
AAGCATCA	-0.0245
AACGCAAT	0.0856
ATAGTACA	0.2
CGGTGTAG	-0.0571
ACTTGCGC	-0.121
CCATTCTC	0.0682
AGCTGCGC	-0.119
TAAATCTA	0.132
AGGGAAGG	-0.277
GCTCCCGA	-0.137
CGAGGTCA	-0.0467
CAAAATCA	0.215

Sequence	PBM E-score
TCTCAAGA	0.00674
AATAGAGC	0.0828
GGCCCGGA	0.305
AAGAGTAC	0.0213
CCGCGCCC	-0.185
GTCTTGGA	0.0857
CGTATGGC	-0.0261
CCCGTTAG	-0.0959
AGGCCGGC	-0.11
ATATGAAT	0.227
ACGCAAAC	-0.0168
ACCCCAGC	-0.154
ATTACGAA	0.147
CCCGACAG	-0.175
CCCATCAG	-0.417
TATTTTAA	0.23
CGGCATAG	-0.0919
ATGTCTAG	0.043
CCTCGGTA	-0.0533
CCCAGCCA	-0.00153
ATACGTGA	0.179
CGCGTTAG	-0.133
ACCTATGC	-0.0957
ACGTCTTC	-0.0853
ATGAACTA	0.216

Sequence	PBM E-score
AGGTGCTA	-0.0109
GATGGTGC	-0.409
TCCGGAGA	0.409
ACCAACTA	0.141
CCACCTAG	-0.239
CATCATCG	0.0778
AAGACCGC	0.107
ATCTGACC	-0.00655
ATTTACGA	0.25
GAGTGATC	0.0533
GCTGGGCA	-0.224
TAGGCAGA	0.0973
AGCGTGAA	-0.182
AGGTCCTC	-0.0783
CGCTGTAC	-0.0533
CGCCGTCA	-0.328
ACCCTTCT	-0.0938
TCCGCTAA	0.105
ACATGGGC	-0.0643
GAGCGCGA	-0.0677
CACGGAAG	-0.0741
GCTGCTCC	-0.173
AACGTAGC	-0.0733
ATGACTTA	0.156
CTGTAGAC	-0.0463

Sequence	PBM E-score
CGCGCGCG	-0.0395
ATACTCGA	-0.0765
CTGGATTA	0.0735
TCGCTGCA	-0.206
TTACACAA	0.162
CGCCGTGC	-0.0961
TCGATCGA	-0.057
ACATTTAG	0.0192
GCTCGCGA	0.0224
GATAGGTA	0.174
AATCCTGG	-0.104
CATCGCCA	-0.0767
GATATCTA	0.0817
AAACCCTT	0.0235
AACTGGCC	-0.0834
CCAAGATA	-0.0422
AGCGTTAT	-0.0427
ACGATGTC	-0.101
CATGCCAG	-0.268
GAAGGTGC	-0.107
CGCTTAGA	-0.184
GTTCTCTA	0.119
AGCGAACG	-0.208
GATACAGA	0.0796
ACGAATCG	-0.00053

Sequence	PBM E-score
CGGTTGCA	-0.231
CGGAGCCG	0.338
GATACCTA	0.166
ATCATGAG	0.0216
CGTTTCTA	0.0135
ATTTCGCC	0.0925
CTTCTCGC	0.0589
CGGCTGAC	0.0338
AGCTACAC	-0.0563
AGTGTTTG	0.0374
TACTAGCA	-0.0541
TCCAGTAA	-0.133
CCCACGAA	-0.113
CTTAGGAC	-0.195
CAGCAGCC	-0.193
CCCATGCC	-0.337
CACGCAAC	0.125
AACACCTA	-0.111
ACGGTCAC	-0.215
GCTACCCC	-0.202
CGTACCAC	-0.0473
CAGAAGGG	-0.238
CCGCCAGA	-0.0923
ACGCCACG	-0.226
GACACACA	-0.0451

Sequence	PBM E-score
ATCCGCCC	-0.171
ACACGCAC	-0.147
ACACTGTG	-0.122
TCCGAACA	0.399
AAAGGGGA	-0.245
CGCGCGAC	-0.181
ATATATTA	0.282
GTGAACAC	-0.041
GGCGCGAA	-0.0925
AGTGACCA	0.0114
AGTAAGTG	-0.0333
TCTTAGCA	-0.106
TCGTTAGA	-0.105
ACGAGTGA	-0.115
ACAACATG	0.0137
ATGCGGAG	0.259
AGTTCTAT	0.0966
CTGTTGGC	-0.134
TGTTAGAA	0.215
